The values that follow come from PMC3514547 (Biochemistry, 2012).

By Kd is commonly meant a measure of binding affinity in units of concentration. Read a high Kd as a looser complex.

Bounds are passed on as bounds.

Experiment [1] concerns the target T1, Pot1pN_F88A (Schizosaccharomyces pombe, UniProt O13988, F88A). The note with it: ITC. (In general: ITC needs no label: the signal is the heat of the interaction.)
Experiment [2] concerns the target T1, Pot1pN_F88A. Nature of the experiment: biochemical.
Experiment [3] has as its target T2, DNA-binding domain of Cdc13 (Saccharomyces cerevisiae, UniProt P32797).
T2 sequence (P32797 500-686 limits assumed): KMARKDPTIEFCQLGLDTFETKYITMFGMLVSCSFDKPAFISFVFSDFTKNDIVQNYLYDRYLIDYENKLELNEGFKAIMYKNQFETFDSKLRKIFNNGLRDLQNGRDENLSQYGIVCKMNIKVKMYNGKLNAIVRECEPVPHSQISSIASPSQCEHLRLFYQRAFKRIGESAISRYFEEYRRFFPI
Put plainly: ITC of CR binding to Cdc13-DBD. The conditions noted are these: 2.1 mM CR titrated into 88 μM protein, triplicate.

Turning to `Nc1c(/N=N/c2ccc(-c3ccc(/N=N/c4cc(S(=O)(=O)O)c5ccccc5c4N)cc3)cc2)cc(S(=O)(=O)O)c2ccccc12` [CR, Congo red], on Pot1pN_F88A [1], the “reduction in binding affinity, F88A vs Pot1pN” value is greater than 10 fold and the “unfavorable change in ΔH, F88A vs Pot1pN” value is given as ~ 4 kcal/mol. At Pot1pN_F88A [1] (20 °C, F88A mutant), the ΔH is -6.0 ± 0.1 kcal/mol. This compound also came in with a Kd at Pot1pN_F88A [2] of 9.6 ± 0.2 µM. Also, in experiment [3], the “binding to Cdc13 by ITC” value is listed as “no binding”.
